# According to PubChem BioAssay AID504706 (National Center for Advancing Translational Sciences (NCATS), 2011):
# Screen size: about 320,000 compounds; about 200 (0.062%) were called active. Inconclusive results, whose numbers are uncertain, are shown with a selection of clear calls. Calls follow the shape of the dose curve; as a rule, active = well fitted activation curve with a large enough effect; inconclusive = small, poorly fitted or top-dose-only effect; inactive = no such curve, though single readings can be large or run the other way. No potency is given beside an inconclusive call; the fits are too rough.
# Experiment: qHTS assay for re-activators of p53 using a Luc reporter; also: nearly all actives have a fitted effect of over 45% in size; as to activity change, positive = activation: % of control where 0% means no effect
# Details: H1299 p53-A138V BP100-luciferase reporter, luminescence, 24 h; series mostly up to 92.2 µM; activity change, positive = activation: at the top concentration
# In short: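 p53-null H1299 cells stably carrying temperature-sensitive p53-A138V and a BP100-luciferase reporter were pinned with compounds (4-point, 1:5 series) and held 24 hrs at 37 deg C. Luminescence was read 10 min after detection reagent.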
# Potency is read from the fitted curve at half-maximal effect; tags tell the direction and shape of the fitted curve.
SMILES,Potency,"activity change, positive = activation"
CCCCC(=O)Nc1ccc2c(c1)oc1ccccc12,"inconclusive [activator, single point]",
Cn1ccnc1SCC(=O)Nc1ccc2c(c1)OCCO2,"inconclusive [activator, partial curve, poor fit]",
O=C(Nc1ccccc1)OCCOc1ccccc1Br,"inconclusive [activator, partial curve, poor fit]",
COc1ccccc1NC(=S)N1CCCc2ccccc21,"inconclusive [activator, partial curve, poor fit]",
O=C(OCc1ccc(Cl)c(Cl)c1)c1cccnc1Cl,,inactive: 10.2%
OCCCCNc1cccc2ccccc12,,inactive: -0.0892%
O=C(COc1ccc(Cl)cc1)Nc1nnc(-c2ccc3c(c2)CCCC3)o1,,inactive: 27.3%
O=C(Cn1ncc2c(=O)oc3ccccc3c21)NCCC1=CCCCC1,"inconclusive [activator, single point]",
C(=C\n1nnc2ccccc21)/c1ccccn1,"inconclusive [activator, full curve, poor fit]",
O=C(NNC(=S)NC(=O)c1ccco1)c1ccc(NC(=O)c2ccccc2)cc1,,inactive: 7.4%
N#CC(C#N)=Cc1ccc(NC(=O)c2ccc(Br)cc2)cc1,"inconclusive [activator, partial curve, poor fit]",
O=C(CSC(=S)N1CCOCC1)Nc1nc(=O)c2ccccc2s1,"inconclusive [activator, partial curve, poor fit]",
N/C(=N/OC(=O)c1ccccc1Cl)c1nonc1N,"inconclusive [activator, partial curve, poor fit]",
COc1ccc(CN(C)C(=O)COC(=O)c2cc([N+](=O)[O-])ccc2N2CCCC2)c(OC)c1OC,,inactive: -7.01%
CSc1nc(NCc2ccccc2)c2c3c(sc2n1)CN(C)CC3,"inconclusive [activator, single point]",
O=C(CSc1ncccn1)NC(=O)Cc1ccccc1,,inactive: -1.65%
O=C(CCN1C(=O)C2C3C=CC(C3)C2C1=O)Nc1ccc2ncccc2c1 (stereo unspecified),"inconclusive [activator, partial curve, poor fit]",
O=C(COc1ccccc1Br)Nc1ccc(S(=O)(=O)N2CCCC2)cc1,,inactive: -8.74%
CSc1ncccc1C(=O)N1CCCC(CCC(=O)NCc2ccc(F)c(F)c2)C1 (stereo unspecified),,inactive: 0.727%
C[C@H](CO)N1C[C@H](C)[C@@H](CN(C)C(=O)Nc2ccc3c(c2)OCO3)Oc2ccc(NC(=O)CCN3CCOCC3)cc2C1=O,,inactive: 3.39%
O=C(CN1C(=O)c2ccccc2S1(=O)=O)NCc1ccc(F)cc1,"inconclusive [activator, partial curve, poor fit]",
CCOc1ccccc1N(C(=O)Nc1ccc(Cl)cc1)C1=NC(C)CS1 (stereo unspecified),"inconclusive [activator, partial curve, poor fit]",
CC(C)(C)c1ccc(NC(=S)NCc2cccs2)cc1,"inconclusive [activator, partial curve, poor fit]",
N/C(=N\OC(=O)c1ccc(Cl)cc1Cl)c1ccc(Cl)cc1,,inactive: 20.3%

SMILES,Potency,"activity change, positive = activation"
Oc1ccc2ccccc2c1CNc1cnc2ccccc2c1,"inconclusive [activator, single point]",
Cc1ccc(CNc2nc(C)cs2)cc1,"inconclusive [activator, partial curve]",
Cc1ccsc1/C=N/NC(=O)c1ccco1,"inconclusive [activator, single point]",
Cn1cccc1CC(=O)NNC(=S)NC(=O)c1ccc(F)cc1,"inconclusive [activator, partial curve, poor fit]",
COc1cccc(NC(=O)CSc2nnc(-c3ccc(C)cc3)o2)c1,"inconclusive [activator, full curve, poor fit]",
CCCCOc1ccc(CSC(=N)N)cc1Cl,,inactive: 7.1%
CC12CCC(=O)N1C(C(=O)Nc1nc3ccccc3s1)CS2 (stereo unspecified),"inconclusive [activator, full curve]",
Cc1ccc(S(=O)(=O)N(CC(=O)N2CCc3ccccc3C2)c2ccc(Cl)c(Cl)c2)cc1,,inactive: -2.9%
COc1ccc(Cc2nc(-c3ccc(Br)cc3)no2)cc1,"inconclusive [activator, partial curve]",
CC(C)[C@H](NC(=O)c1ccc(Br)cc1)C(=O)NC1CCCCC1,"inconclusive [activator, full curve, poor fit]",
Cc1[nH]cnc1CSCc1ccc(Cl)cc1,"inconclusive [activator, partial curve, poor fit]",
COc1cc(OC)c(OC)cc1CNC(=O)c1cccc(S(=O)(=O)N2CCc3ccccc3C2)c1,,inactive: -6.64%
CCc1ccccc1Nc1nc(N)nc(COC(=O)CCC(=O)c2ccc(F)cc2)n1,"inconclusive [activator, partial curve, poor fit]",
OCCCNc1nccc(-c2cc(Nc3cccc(Cl)c3)ncn2)n1,"inconclusive [activator, full curve, poor fit]",
O=C(/C=C/c1ccc(Cl)cc1)N1CCN(c2ncccn2)CC1,,inactive: -1.43%
COc1ccc(-c2ccc(SC)nn2)cc1,,inactive: 13.2%
COc1ccc(CNC(=O)c2cc3cccc(OC)c3oc2=N)cc1,"inconclusive [activator, single point]",
Cc1cc(C)n(-c2ccc(N3CCOCC3)nn2)n1,"inconclusive [activator, partial curve, poor fit]",
CCOC(=O)C1(Cc2cccc(OC)c2)CCCN(C(=O)CCN2CCCO2)C1 (stereo unspecified),"inconclusive [activator, partial curve, poor fit]",
Cc1ccc2c(c1)[C@H]1[C@H](CO2)[C@H](c2ccccc2)[C@]2(C)C(=O)Nc3cc(F)ccc3C(=O)N12,,inactive: -4.42%
COc1ccc(C2NN=C(c3ccc(C)cc3)S2)cc1 (stereo unspecified),"inconclusive [activator, full curve, poor fit]",
COc1ccc(NC(=O)CSc2nnc(C)c3ccccc23)cc1,"inconclusive [activator, single point]",
COc1ccc(Nc2nnc(C)c3ccccc23)cc1C(N)=O,"inconclusive [activator, partial curve, poor fit]",
CSc1nnc(-c2ccc(F)cc2)o1,"inconclusive [activator, single point]",

SMILES,Potency,"activity change, positive = activation"
Cc1n[nH]c(=O)c2c(NC(=O)CSc3nc4ccccc4c(=O)n3CCCOC(C)C)oc(C)c12,,inactive: 3.08%
O=C(COc1ccc(Br)cc1)N1CCCCCC1,"inconclusive [activator, single point]",
CCCOc1ccc(N2C(=O)CC(N(CCc3ccc(OC)cc3)C(=O)c3cccc(F)c3)C2=O)cc1 (stereo unspecified),"inconclusive [activator, partial curve, poor fit]",
O=C(COc1ccc2ccc(=O)oc2c1)Nc1cccnc1,"inconclusive [activator, single point]",
O=C(OCC(=O)N1CCOCC1)c1ccccc1O,"inconclusive [activator, full curve, poor fit]",
O=C(COC(=O)c1ccc(CNS(=O)(=O)c2ccc(F)c(Cl)c2)cc1)NCC1CCCCC1,"inconclusive [activator, single point]",
CCCn1c(C)cc(C(=O)COc2ccc(C)nc2[N+](=O)[O-])c1C,"inconclusive [activator, partial curve, poor fit]",
O=C(CN1CCOCC1)NCCNC(=O)CN1CCOCC1,,inactive: 15.5%
COC(C(=O)Nc1ccc(S(=O)(=O)Nc2ccc(F)cc2)cc1)c1ccccc1 (stereo unspecified),"inconclusive [activator, single point]",
COc1nc(-c2ccccc2)ccc1-c1noc(-c2ccccc2)n1,"inconclusive [activator, partial curve, poor fit]",
COc1ccc(-c2cnnc(N/N=C/C(C)=C/c3ccccc3)n2)cc1,"inconclusive [activator, single point]",
Cc1ccc(C(=O)Nc2nccs2)s1,"inconclusive [activator, full curve, poor fit]",
CC(=O)Nc1nc(COc2ccccc2)cs1,"inconclusive [activator, partial curve, poor fit]",
O=C(NC(C1CC1)C1CC1)C1CCC(=O)N(CCCN2CCCC2=O)C1 (stereo unspecified),"inconclusive [activator, single point]",
Cc1ccc(-c2cc(C(=O)Nc3nn[nH]n3)c3ccccc3n2)cc1,,inactive: -2.31%
CCc1cc2cc(C(=O)Nc3ccc(C)cc3)sc2s1,"inconclusive [activator, single point]",
COc1cc(SC)ccc1C(=O)NCc1ccccc1,"inconclusive [activator, partial curve, poor fit]",
Cc1csc2nc(CSc3nc4ccccc4o3)c(Br)n12,"inconclusive [activator, full curve]",
Cc1cc(Nc2ccccc2)n(-c2nc3ccccc3[nH]2)n1,,inactive: 2.75%
CCNC(=S)NNc1ccccc1,,inactive: 2.23%
COc1ccc2nc(C)cc(N/N=C/c3ccccc3)c2c1,,inactive: -6.08%
COc1ccc(C2NN=C(c3ccc(C)cc3)S2)cc1OC (stereo unspecified),"inconclusive [activator, partial curve, poor fit]",
Cc1[nH]c2ccc(C(=O)OCCN(C)C)cc2c1C,"inconclusive [activator, partial curve, poor fit]",
